Data reported in PubChem BioAssay AID1347120 (National Center for Advancing Translational Sciences (NCATS), 2019).
About 930 (0.24%) of roughly 390,000 compounds were called active. Inconclusive results, whose numbers are uncertain, are shown with a selection of clear calls. Calls come from the whole dose curve; as a rule, active = well fitted activation curve with a large enough effect; inconclusive = small, poorly fitted or top-dose-only effect; inactive = no such curve, though single readings can be large or run the other way. Potencies beside an inconclusive call are fits to weak or partial responses and may not hold up.

Assay: qHTS for Suppressors of FUS Proteinopathy: Primary screen using FUS-linked yeast assay; note: nearly all actives have a fitted effect of over 55% in size;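 for growth rescue (activation): plate controls were DMSO vehicle for no effect and reference control for full effect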
Conditions: S. cerevisiae FUS-expressing, OD600, 24 h; Potency: growth rescue; growth rescue (activation): at 76.6 µM (top of the series)
Summary of the method: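 Compound concentration series was pinned onto galactose-induced FUS-expressing yeast seeded at OD 0.005. Plates sat 24hr at 30C; absorbance at 600 nm gave growth. DMSO served as background control.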
Potency is the fitted concentration of half-maximal effect; tags give direction and shape of the fitted curve.

SMILES | Potency | growth rescue (activation)
Cc1nc(NC(=O)c2ccccc2)sc1-c1csc(N)n1 | inconclusive: 39.8 µM [activator, partial curve, poor fit] | 
Cc1cccc(S(=O)(=O)c2cn(Cc3ccc(F)cc3)c3cc(N4CCOCC4)c(F)cc3c2=O)c1 | inconclusive: 35.5 µM [activator, partial curve, poor fit] | 
C=CC(=O)NC1CCCCN(CC)C1=O (stereo unspecified) |  | inactive: 13.6%
CCC(C(=O)NC1CCCCC1)n1nc(C)c2sc3ccccc3c2c1=O (stereo unspecified) |  | inactive: -17.9%
COc1ccc(S(=O)(=O)N2CCC(c3nnnn3-c3ccccc3)CC2)cc1OC |  | inactive: -14.6%
Cc1ccc(/C=C/C(=O)N2CC(C)CC(C)C2)o1 (stereo unspecified) |  | inactive: 18.3%
CCc1nnc(NC(=O)c2nc(SCc3ccc(F)cc3)ncc2Cl)s1 | inconclusive: 17.8 µM [activator, partial curve, poor fit] | 
Cc1nn(-c2ccccc2)c2nc(-c3ccccc3)cc(C(=O)N3CCOCC3)c12 | inconclusive: 39.8 µM [activator, partial curve, poor fit] | 
O=c1cc(CSc2nnnn2-c2ccccc2)nc2scc(-c3ccccc3)n12 | inconclusive: 28.2 µM [activator, partial curve, poor fit] | 
Cc1ccc(C)n1NC(=O)c1ccco1 | inconclusive: 50.1 µM [activator, single point] | 
COc1ccc(C(=O)CC2(O)C(=O)N(CCc3ccccc3)c3ccc(Br)cc32)cc1OC (stereo unspecified) | inconclusive: 31.6 µM [activator, single point] | 
COc1ccc(/C(O)=C2/C(=O)C(=O)N(CCN3CCOCC3)C2c2ccccn2)cc1 (stereo unspecified) | inconclusive: 28.2 µM [activator, partial curve, poor fit] | 
O=C(CCOc1ccccc1)Nc1ccccc1 |  | inactive: 3.32%
C[C@@H](c1ccccc1)N1C[C@@H](COCc2ccccc2)Oc2cc(N3CC[C@@H](O)C3)ccc2S1(=O)=O | inconclusive: 39.8 µM [activator, single point] | 
CCCNC(=O)N1CC[C@H]2[C@@H]1c1cc(-c3ccc(F)cc3)ccc1N(C)[C@H]2CO |  | inactive: 21.9%
CCOC(=O)CSc1nc(-c2ccc(OC)cc2)cc(C(F)(F)F)c1C#N |  | inactive: -15.8%
CN1C(=O)c2cc(NC(=O)c3ccccc3)ccc2OC[C@H]2O[C@@H](CC(=O)NCC3CC3)CC[C@@H]21 |  | inactive: 5.16%
Cc1ccc(-n2nc(C)c3c(C(=O)Nc4ccc(C)cc4Cl)cc(C)nc32)cc1 |  | inactive: -18.1%
COc1ccccc1N1CCN(C(=O)c2cc3sccc3n2C)CC1 | inconclusive: 50.1 µM [activator, single point] | 
O=C(CSc1oc(-c2cccs2)nc1S(=O)(=O)c1ccccc1)Nc1ccc(F)cc1 |  | inactive: 7.26%
O=C(NCCN1CCOCC1)c1ccccc1N1C(=O)[C@@H]2Cc3c([nH]c4ccccc34)C(c3ccccc3)N2C1=O (stereo partly specified) | inconclusive: 22.4 µM [activator, partial curve] | 
Cc1cccc(OC(C)c2ccnc3nc(/N=C/N(C)C)nn23)c1 (stereo unspecified) |  | inactive: 13.4%

SMILES | Potency | growth rescue (activation)
O=C(NCc1ccccc1)c1c[nH]c2cc3c(cc2c1=O)OCCO3 |  | inconclusive: 69.9% [activator]
O=C(Nc1ccccc1)C1=C[C@H](c2coc3ccccc3c2=O)C[C@H](OCc2ccc(CO)cc2)O1 | inconclusive: 15.8 µM [activator, single point] | 
CCOc1ccc(C(=O)NCCc2sc(-c3cccc(F)c3)nc2C)cc1OCC |  | inactive: 11.4%
COCCCNC(=O)C[C@H]1C[C@@]2(C(=O)OC)C(=C[C@H](C3CCCC3)O[C@@H]2C)N(Cc2ccc(Cl)cc2Cl)C1=O | inconclusive: 31.6 µM [activator, single point] | 
COc1ccc(NC(=O)COc2cccc3c2OC(C)(C)C3)cc1OC | inconclusive: 31.6 µM [activator, single point] | 
CCc1ccc(N2CC(c3nc4ccccc4n3Cc3ccccc3C)CC2=O)cc1 (stereo unspecified) | inconclusive: 20 µM [activator, single point] | 
Cc1cc(C)c(O)c(-c2n[nH]c3c2C(c2cccc(O)c2)N(Cc2ccco2)C3=O)c1 (stereo unspecified) | active: 31.6 µM | 
O=C(CNc1ccc(C(F)(F)F)cc1)Nc1cccc(S(=O)(=O)N2CCCCC2)c1 |  | inactive: 30.3%
O=C(Nc1ccc(OCc2cc(=O)n3c4c(sc3n2)CCCC4)cc1)c1ccc(F)cc1 |  | inactive: -20.4%
COc1cccc(C(=O)NC(=S)Nc2ccc3[nH]c(=O)[nH]c3c2)c1 | inconclusive: 31.6 µM [activator, partial curve, poor fit] | 
COC(=O)C1=C(C(=O)OC)C(c2cc(Br)ccc2O)c2sc(=O)[nH]c2S1 (stereo unspecified) |  | inactive: 7.08%
COc1cccc(/C=C/c2nc(C#N)c(N3CCCCCC3)o2)c1 | inconclusive: 25.1 µM [activator, single point] | 
O=C1CCN(CCCN2CCC(=O)N(Cc3ccccc3)C2=S)C(=S)N1Cc1ccccc1 | inconclusive: 12.6 µM [activator, partial curve] | 
CC1(C)NC(=O)N(CCCOc2ccc(Br)cc2Cl)C1=O | inconclusive: 50.1 µM [activator, single point] | 
COC(=O)[C@]1(Cc2ccccc2)N[C@H](CN(C)S(=O)(=O)c2ccc(OC(F)(F)F)cc2)[C@@H]2C(=O)N(Cc3ccccc3)C(=O)[C@@H]21 | inconclusive: 28.2 µM [activator, single point] | 
CCc1cc(C(=O)Nc2ccc(S(=O)(=O)NC3=NCCCCC3)cc2)sc1C | active: 25.1 µM | 
C[C@@H]1CCCCO[C@@H](CN(C)S(=O)(=O)c2cn(C)cn2)[C@@H](C)CN([C@H](C)CO)C(=O)c2cc(NC(=O)Nc3ccc(C(F)(F)F)cc3)ccc2O1 | inconclusive: 31.6 µM [activator, single point] | 
O=C(Nc1ccc2c(c1)CCC2)c1cccc(S(=O)(=O)N2CCN(c3ccccc3)CC2)c1 | active: 14.1 µM | 
CC(C)(C)c1ccc(-c2nnc(SCC(=O)Nc3ccc(S(=O)(=O)Nc4nccs4)cc3)n2Cc2ccco2)cc1 | inconclusive: 20 µM [activator, partial curve, poor fit] | 
CSc1ncccc1C(=O)NC1CCN(Cc2ccccc2)CC1 |  | inactive: -1.79%
O=c1[nH]c(=O)n(Cc2ccccc2)c2nc(-c3ccc(Oc4ccc(F)cc4)c([N+](=O)[O-])c3)n(CCO)c12 | inconclusive: 50.1 µM [activator, partial curve, poor fit] | 
CSc1ccc(CCNC(=O)CCn2c(=O)c3cccn3c3cccnc32)cc1 |  | inactive: -18.6%

SMILES | Potency | growth rescue (activation)
COc1cccc(/C=C2/CN(C)CC3=C2OC(N)=C(C#N)C3c2cccc(OC)c2)c1 (stereo unspecified) | inconclusive: 25.1 µM [activator, single point] | 
COc1ccc(C)cc1NC(=O)Cn1c(=O)oc2ccccc21 |  | inactive: 8.56%
O=C(NC1CCCCCC1)c1ccc(S(=O)(=O)NCc2ccco2)cc1 | inconclusive: 50.1 µM [activator, partial curve, poor fit] | 
CC(C)[C@H](NC(=O)C1CCCC1)c1nc2ccccc2[nH]1 |  | inconclusive: -98.1% [activator]
O=C1C2CC=C(Cl)CC2C(=O)N1CCCCCCN1C(=O)C2CC=C(Cl)CC2C1=O (stereo unspecified) | inconclusive: 31.6 µM [activator, partial curve] | 
Cc1nc(-c2cccc(NS(=O)(=O)c3cccc4ccccc34)c2)cs1 | inconclusive: 39.8 µM [activator, single point] | 
Cc1ccccc1NCc1cccn1-c1nnc(N2CCOCC2)s1 |  | inactive: 33.7%
COc1cccc(C(O)c2nc(-c3cccc(F)c3)cs2)c1 (stereo unspecified) |  | inactive: 1.68%
COc1ccc(CNc2ncnc3c2[nH]c2ccccc23)cc1 | inconclusive: 39.8 µM [activator, single point] | 
Cc1csc2nc(COc3ccc(NC(=O)COc4ccccc4F)cc3)cc(=O)n12 |  | inactive: -28.1%
O=C(/C=C/c1ccco1)NC(=S)Nc1ccccc1N1CCOCC1 |  | inactive: 33.8%
COc1ccccc1Cn1c(CNS(=O)(=O)c2ccc3c(c2)CCCC3)nc2cccnc21 | inconclusive: 35.5 µM [activator, single point] | 
O=C(OCc1cccc(C(F)(F)F)c1)c1cc([N+](=O)[O-])ccc1N1CCOCC1 |  | inactive: 24.9%
CCC1CCCCN1CCCNC(=O)c1ccc2c(c1)N(Cc1ccccc1F)C(=O)c1ccccc1S2(=O)=O (stereo unspecified) | inconclusive: 3.16 µM [activator, full curve] | 
Cc1ccc(C(=O)Nc2ccc3c(c2)N(C)C(=O)c2ccccc2S3)cc1 | inconclusive: 50.1 µM [activator, single point] | 
CCc1ccc(NC(=O)c2cc(S(=O)(=O)N3CCCC3)ccc2F)cc1 | inconclusive: 6.31 µM [activator, partial curve, poor fit] | 
N#C/C(=C\c1cn[nH]c1-c1ccccc1)C(=O)NC1CCCCCC1 | inconclusive: 39.8 µM [activator, partial curve, poor fit] | 
CC1=CC(c2ccccc2)n2nc(N3C(=O)c4ccccc4C3=O)nc2N1 (stereo unspecified) |  | inactive: 47.5%
COc1cc2ncc(S(=O)(=O)c3ccccc3)c(N3CCCC(C)C3)c2cc1OC (stereo unspecified) | inconclusive: 39.8 µM [activator, single point] | 
CCN(CC(=O)Nc1ccccc1C(F)(F)F)C(=O)c1ccc(N2CCCC2=O)cc1 |  | inactive: 9.76%
CN(C)CCCn1c(SCC(=O)N2c3ccccc3Sc3ccccc32)nc2ccccc2c1=O | inconclusive: 17.8 µM [activator, single point] | 
O=c1c2c3c(sc2n2cnnc2n1Cc1ccccc1)CN(Cc1ccccc1)CC3 | inconclusive: 35.5 µM [activator, single point] | 
